Here are results for 42 molecules from ChEMBL document CHEMBL4888484, “Replenishing the malaria drug discovery pipeline: Screening and hit evaluation of the MMV Hit Generation Library 1 (HGL1) against asexual blood stage Plasmodium falciparum ,using a nano luciferase reporter read-out” (2022).

Hit rate of the full screen: of about 150,000 compounds, about 540 (0.36%) showed an effect of 50% or more. This is one part of the list.

The assay has as its system Plasmodium falciparum. Put plainly: Primary screen in NF54 nanoGlo assay, in single point, at 2uM, 72h; a lower Z score goes with more inhibition. The settings on record: timepoint 72 hour. Format: functional, Erythrocyte.
As for `CC(C)(C)CCS(=O)(=O)NC(=O)Cc1ccccc1CC#N`, the % Inhibition (usually the change of the read-out against control, counted positive when it falls) is reported as -8% and the Z score amounted to 1.57.
The matching figures for `COC(=O)c1ccc(N2CCN(C3CCOC3=O)C(C)C2)cc1` (centres undefined): 12% and -2.31.
Consider `C[C@H](C(=O)NCc1ccccc1)C1CCN(S(=O)(=O)c2ccc(Cl)s2)CC1`, for which the “% Inhibition” value is reported as -2% and the Z score is 0.24.
In the case of `Cc1nc(NCCCc2c(C)noc2C)cc(C2CCNCC2)n1`, the “% Inhibition” value is 4% and the Z score is listed as -0.35.
The matching figures for `O=C(NCc1ccccn1)c1cc(-c2ccc3c(c2)OCCO3)nc2ccccc12`: 10% and -1.42.
With `Cn1cc(-c2ccc(CN[C@H]3CCC(=O)NC34CCC4)cc2)cn1`, the “% Inhibition” value is given as -10% and the Z score was 1.96.
The matching figures for `CS(=O)(=O)c1cccc(-c2nnc(C3(c4cccc(Cl)c4)CCOCC3)o2)c1`: -10% and 1.59.
Consider `CCC[C@H](NC(=O)CCCn1cccn1)c1nccn1C`, for which the “% Inhibition” value is on record as 1% and the Z score is on record as -0.13.
Taken in the same sequence, the figures for `O=C1C2C3CCC(C3)C2C(=O)N1C1CCCCC1` (centres undefined) were -4% and 0.47.
For `CC(C)Oc1ccc(CNC(=O)CN2CCn3nc(-c4ccc(Cl)cc4)cc3C2=O)cc1`, the “% Inhibition” value is listed as 3% and the Z score was -0.35.
Taken in the same sequence, the figures for `Cc1c(C(=O)NCc2cccc(CO)n2)ccn1C(C)C` were -3% and 0.52.
Taken in the same sequence, the figures for `CC1(C)CCCN(C(=O)[C@H]2CCCN(S(C)(=O)=O)C2)C1` were 9% and -1.25.
Taken in the same sequence, the figures for `c1coc(-c2nnc(CN3CCN4CCCC[C@H]4C3)o2)c1` were 3% and -0.5.
In the case of `C[C@@H](CN(C)Cc1ncnn1C)Oc1ccc(Cl)c(Cl)c1`, the “% Inhibition” value was found to be 1% and the Z score is on record as -0.07.
Taken in the same sequence, the figures for `CC(C)[C@@](C)(C#N)NC(=O)COc1ccc(Br)cc1` were -1% and 0.18.
Turning to `CS(=O)(=O)[C@H]1CCN(C(=O)C2(C3CCCCC3)CCCCC2)C1`, the “% Inhibition” value is -2% and the Z score is reported as 0.25.
Taken in the same sequence, the figures for `O=C(COc1cccc(F)c1)N1CCOC[C@@H](CO)C1` were -17% and 2.18.
As to `O=C1CN(C(=O)NCC[C@H]2C[C@@H]2Cc2ccccc2)CCCN1`, the “% Inhibition” value is on record as -23% and the Z score is 2.43.
The matching figures for `O=C(O)c1cc(CN2CCc3[nH]cnc3[C@@H]2c2ccsc2)ccc1O`: 4% and -0.52.
Taken in the same sequence, the figures for `O=C(OCCc1c[nH]nn1)C1CCCCC1` were 6% and -0.84.
On to `COc1ncccc1N[C@@H](C)c1cc(C)sc1C`, for which the “% Inhibition” value worked out at 1% and the Z score is recorded as -0.17.
With `C[C@@H](C(=O)NCc1nc(C(F)(F)F)n[nH]1)n1cccn1`, the “% Inhibition” value is recorded as 2% and the Z score is given as -0.27.
Taken in the same sequence, the figures for `CCCCN1CCN([C@@H](C(=O)N2CCC(F)(F)CC2)c2ccccc2)C(=O)C1=O` were -10% and 1.35.
Taken in the same sequence, the figures for `CC(C)(C)c1cc(Cn2cc([C@H]3CCCNC3)nn2)[nH]n1` were -34% and 3.01.
Taken in the same sequence, the figures for `N#CC1(CS(=O)(=O)N2CCC[C@H](c3nnc[nH]3)C2)CCCC1` were -4% and 0.72.
For the molecule `Cc1n[nH]c(C)c1CC(=O)N[C@H]1CC[C@H](n2cnnc2)CC1`, the “% Inhibition” value is -6% and the Z score came out at 0.96.
Consider `CCOc1ncccc1C(=O)Nc1cc(C)nn1-c1cccc(Br)c1`, for which the “% Inhibition” value is listed as -2% and the Z score was found to be 0.4.
The matching figures for `CCn1cc(S(=O)(=O)N2CC[C@@]3(CCCN(CC4CC4)C3=O)C2)cn1`: -6% and 0.86.
`COCCN1CC(=O)N[C@H]2CN(C(=O)C3CCCC3)C[C@@H]2OCc2cccc(c2)Oc2cncc(c2)C1=O`: the “% Inhibition” value was -5% and the Z score was determined as 0.74.
Taken in the same sequence, the figures for `CN(C)C(=O)c1ccc(Br)cc1NC(=O)OC(C)(C)C` were -18% and 3.47.
The matching figures for `CCNc1n[nH]c(N)c1-c1nc(-c2ccc(OC)cc2)no1`: -10% and 1.28.
In the case of `O=C(Nc1ccc(N2CCOCC2)cc1)[C@@H](c1cccc(F)c1)N(Cc1ccc(Cl)cc1)C(=O)Cn1nnc2ccccc21`, the “% Inhibition” value was 5% and the Z score was -0.58.
Consider `COc1ccc(OC)c(CN2CCc3nc(N4CCOCC4)ncc3C2)c1`, for which the “% Inhibition” value was 1% and the Z score is recorded as -0.14.
Taken in the same sequence, the figures for `CCCN1C(=O)COc2ccc(-c3noc(Cc4ccc(NC(C)=O)cc4)n3)cc21` were 4% and -0.44.
`CC1CCN(S(=O)(=O)c2ccc3c(c2)-c2oncc2CO3)CC1`: the “% Inhibition” value is -22% and the Z score stood at 2.17.
Taken in the same sequence, the figures for `Cc1cc2n(n1)CCN(C(=O)c1cncc(F)c1)C2` were -7% and 1.27.
For `CCc1nc(C)nc(N2CCN(C(=O)c3ccccc3Cl)CC2)c1Cc1ccc(Cl)cc1`, the “% Inhibition” value is -13% and the Z score is on record as 1.96.
The matching figures for `Cc1nc(C2=C(O)CN(c3ccc(Oc4ccccc4)cc3)C2=N)sc1C`: -11% and 1.15.
Taken in the same sequence, the figures for `COCc1nc(C)cc(N2CC[C@H](c3ccncc3)C2)n1` were -43% and 5.08.
Turning to `Cc1nc2n(n1)C[C@@H](C(=O)N(C)c1ncccc1F)CC2`, the “% Inhibition” value was -8% and the Z score was 1.06.
On to `CC(C)(C)c1ccc2c(c1)N(S(=O)(=O)c1ccccc1)C[C@@H](C(=O)Nc1ccc3c(c1)OCO3)O2`, for which the “% Inhibition” value is -14% and the Z score amounted to 2.63.
Consider `CC(=O)c1c(C)[nH]c(C(=O)N2CC(=O)Nc3ccccc32)c1C`, for which the “% Inhibition” value is 5% and the Z score was -0.59.
